T1: rVIII-SingleChain (recombinant single chain Factor VIII) (Homo sapiens (Human), UniProt P00451 20-2351)
T1 construct: Molar mass used for the fit: 170 kDa; also called rVIII-SC; FVIII
T1 sequence: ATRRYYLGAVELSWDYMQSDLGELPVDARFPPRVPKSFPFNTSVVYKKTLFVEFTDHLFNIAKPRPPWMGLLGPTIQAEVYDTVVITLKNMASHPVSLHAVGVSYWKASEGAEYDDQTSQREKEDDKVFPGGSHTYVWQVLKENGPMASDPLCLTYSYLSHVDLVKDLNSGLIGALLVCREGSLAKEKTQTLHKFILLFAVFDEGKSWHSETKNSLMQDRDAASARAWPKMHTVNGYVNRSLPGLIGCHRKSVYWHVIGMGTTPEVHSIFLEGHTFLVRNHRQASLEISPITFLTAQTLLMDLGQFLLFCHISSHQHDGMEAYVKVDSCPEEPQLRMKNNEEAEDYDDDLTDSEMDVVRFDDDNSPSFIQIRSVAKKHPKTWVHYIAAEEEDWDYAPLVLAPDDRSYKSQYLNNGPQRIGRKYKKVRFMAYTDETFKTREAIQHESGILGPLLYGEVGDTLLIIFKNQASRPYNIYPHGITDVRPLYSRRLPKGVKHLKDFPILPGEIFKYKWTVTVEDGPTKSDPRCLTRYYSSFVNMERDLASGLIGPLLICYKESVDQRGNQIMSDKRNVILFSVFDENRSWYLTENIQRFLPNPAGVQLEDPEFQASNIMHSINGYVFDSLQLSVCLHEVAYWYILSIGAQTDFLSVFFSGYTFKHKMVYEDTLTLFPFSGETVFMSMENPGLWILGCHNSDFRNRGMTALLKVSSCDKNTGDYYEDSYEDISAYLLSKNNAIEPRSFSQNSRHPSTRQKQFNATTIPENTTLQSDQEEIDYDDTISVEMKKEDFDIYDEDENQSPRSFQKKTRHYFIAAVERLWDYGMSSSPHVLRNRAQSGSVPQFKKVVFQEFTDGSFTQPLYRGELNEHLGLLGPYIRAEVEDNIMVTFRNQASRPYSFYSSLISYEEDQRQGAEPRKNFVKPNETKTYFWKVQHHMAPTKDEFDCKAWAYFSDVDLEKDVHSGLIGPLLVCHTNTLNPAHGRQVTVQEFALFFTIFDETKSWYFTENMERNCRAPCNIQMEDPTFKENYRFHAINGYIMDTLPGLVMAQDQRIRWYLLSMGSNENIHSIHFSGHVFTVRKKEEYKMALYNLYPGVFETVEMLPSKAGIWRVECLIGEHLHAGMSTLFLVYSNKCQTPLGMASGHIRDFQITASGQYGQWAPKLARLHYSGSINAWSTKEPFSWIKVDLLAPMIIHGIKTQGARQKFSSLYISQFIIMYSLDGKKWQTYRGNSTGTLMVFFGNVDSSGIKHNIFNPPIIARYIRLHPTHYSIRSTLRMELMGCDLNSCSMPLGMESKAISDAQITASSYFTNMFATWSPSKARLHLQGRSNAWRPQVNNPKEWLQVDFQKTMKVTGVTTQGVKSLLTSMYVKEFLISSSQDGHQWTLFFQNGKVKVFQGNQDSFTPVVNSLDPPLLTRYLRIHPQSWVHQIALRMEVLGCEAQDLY


How the values were obtained:
[1] = biological target: T1, rVIII-SingleChain (recombinant single …); assay: SPR (Biacore T200), D′D3-FP captured by anti-albumin antibody, rVIII-SingleChain as analyte, single cycle kinetics, 25 C; D′D3-FP dimer preparation; rVIII-SingleChain as analyte
Method: (§1) Dimeric and monomeric D′D3-FP proteins, respectively, were immobilized to the covalently coupled anti-albumin antibody by a flow of the D′D3-FP proteins (5 μg/mL) over the chip for 3 min (flow rate of 10 μL/min).
(§2) To create binding curves for FVIII, each D′D3-FP protein preparation was diluted in running buffer (HBS-P+: 0.1 M HEPES, 1.5 M NaCl and 0.5% v/v Surfactant P20, pH 7.4; product code BR100671, GE Healthcare) to concentrations of 0.25 nM, 0.5 nM, 1 nM, 3 nM and 4 nM. By performing a single cycle kinetic, samples with ascending concentrations of each dilution were flown over the chip for 2 min (flow rate 30 μL/min.), followed by a dissociation time of 10 min. with running buffer HBS-P+. All measurements were performed twice. The temperature for the measuring procedure was adjusted to +25° C.
(§3) Binding parameters were calculated using BiaEvaluation Software. The curve fitting methods were based on Langmuir equations. The input data for calculations were the molar mass of the analyte FVIII (rVIII-SingleChain) of 170 kDa, other parameters like max. RU and slopes were automatically extracted out of the fitted association and dissociation curves. The outputs of BiaEvaluation Software are the association rate constants and the dissociation rate constants, from which the affinity constants were calculated.

[2] = biological target: T1, rVIII-SingleChain (recombinant single …); assay: SPR (Biacore T200), D′D3-FP captured by anti-albumin antibody, rVIII-SingleChain as analyte, single cycle kinetics, 25 C
Method: as §1, §2, §3

[3] = biological target: T1, rVIII-SingleChain (recombinant single …); assay: SPR (Biacore T200), reference: D′D3-FP monomer
Method: as §1, §2, §3

[4] = biological target: T1, rVIII-SingleChain (recombinant single …); assay: SPR (Biacore T200), D′D3-FP captured by anti-albumin antibody, rVIII-SingleChain as analyte, single cycle kinetics, 25 C; D′D3-FP monomer preparation; rVIII-SingleChain as analyte
Method: as §1, §2, §3

Row | Kd [1] [nM] | koff [2] [s⁻¹] | kon [2] [M⁻¹ s⁻¹] | fold slower dissociation rate constant than to the monomer [3] [fold] | Kd [4] [nM] | Binder
1 | 0.059 | 0.00137 | 2.33e+07 | 3 | – | D′D3-FP dimer (D′D3 albumin fusion protein, dimeric) (other, Covalently linked (disulfide) dimer of the mature D′D3-FP chain, made in CHO cells and separated from the monomer by size exclusion chromatography; N-glycosylated; also called dimeric D′D3-FP; VWF fragment dimer) SLSCRPPMVKLVCPADNLRAEGLECTKTCQNYDLECMSMGCVSGCLCPPGMVRHENRCVALERCPCFHQGKEYAPGETVKIGCNTCVCRDRKWNCTDHVCDATCSTIGMAHYLTFDGLKYLFPGECQYVLVQDYCGSNPGTFRILVGNKGCSHPSVKCKKRVTILVEGGEIELFDGEVNVKRPMKDETHFEVVESGRYIILLLGKALSVVWDRHLSISVVLKQTYQEKVCGLCGNFDGIQNNDLTSSNLQVEEDPVDFGNSWKVSSQCADTRKVPLDSSPATCHNNIMKQTMVDSSCRILTSDVFQDCNKLVDPEPYLDVCIYDTCSCESIGDCACFCDTIAAYAHVCAQHGKVVTWRTATLCPQSCEERNLRENGYECEWRYNSCAPACQVTCQHPEPLACPVQCVEGCHAHCPPGKILDELLQTCVDPEDCPVCEVAGRRFASGKKVTLNPSDPEHCQICHCDVVNLTCEACQEPGGSSGGSGGSGGSGGSGGSGGSGGSGGSGGSGS[about 600 residues cut from this listing]
2 | – | 0.00396 | 4.41e+07 | – | 0.0899 | D′D3-FP monomer (D′D3 albumin fusion protein, monomeric) (other, Monomer fraction of D′D3-FP from size exclusion chromatography; also called monomeric D′D3-FP; VWF fragment monomer) SLSCRPPMVKLVCPADNLRAEGLECTKTCQNYDLECMSMGCVSGCLCPPGMVRHENRCVALERCPCFHQGKEYAPGETVKIGCNTCVCRDRKWNCTDHVCDATCSTIGMAHYLTFDGLKYLFPGECQYVLVQDYCGSNPGTFRILVGNKGCSHPSVKCKKRVTILVEGGEIELFDGEVNVKRPMKDETHFEVVESGRYIILLLGKALSVVWDRHLSISVVLKQTYQEKVCGLCGNFDGIQNNDLTSSNLQVEEDPVDFGNSWKVSSQCADTRKVPLDSSPATCHNNIMKQTMVDSSCRILTSDVFQDCNKLVDPEPYLDVCIYDTCSCESIGDCACFCDTIAAYAHVCAQHGKVVTWRTATLCPQSCEERNLRENGYECEWRYNSCAPACQVTCQHPEPLACPVQCVEGCHAHCPPGKILDELLQTCVDPEDCPVCEVAGRRFASGKKVTLNPSDPEHCQICHCDVVNLTCEACQEPGGSSGGSGGSGGSGGSGGSGGSGGSGGSGGSGS[about 600 residues cut from this listing]
